Measured values reported in PubChem BioAssay AID624418 (National Center for Advancing Translational Sciences (NCATS), 2012).
In all, about 410,000 compounds went through this assay and about 530 (0.13%) were called active. The inconclusive results got no clear call from the source; some entries with a clear call stand among them for comparison. The call rests on the fitted dose curve; in most records, active means well fitted inhibition curve with a large enough effect; inconclusive means small, poorly fitted or top-dose-only effect, or another doubt; inactive means no such curve, though single readings can be large or run the other way. A potency beside an inconclusive call is a rough fit, not a confirmed value.

test: qHTS of GLP-1 Receptor Inverse Agonists: Cytotox Screen; settings: HEK293 cAMP-luciferase reporter cells, luminescence, 24 h; activity change, negative = inhibition: at 38.3 µM (top of the series) unless noted
Procedure, shortened: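 A 23 nL compound transfer followed 12 hours of cell culture at 37 deg C; exposure then lasted 24 hr. Luciferase assay detection reagent was dispensed and plates read for luminescence after a 12 min room-temperature wait.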
On the % scale 0 is the no-effect control and ±100 the full control effect; potency means the concentration at half of the fitted maximal effect.

Compound | activity change, negative = inhibition | Potency
Cc1ccc(S(=O)(=O)N2CCN(C(=O)COC(=O)CSc3cc(C)ccc3C)CC2)c(C)c1 | inactive: 6.35% | 
CCN(CC)CCNC(=O)C(Cl)=C1C(Cl)=C(Cl)C(Cl)=C1Cl |  | inconclusive: 14.1 µM [inhibitor, single point]
Cc1cc(C)cc(NS(=O)(=O)c2ccc(Oc3ncc(C(F)(F)F)cc3Cl)cc2)c1 |  | inconclusive: 11.2 µM [inhibitor, single point]
CCOc1ccc2[nH]c(=O)c(CN(Cc3ccco3)C(CC)c3nnnn3Cc3ccccc3)cc2c1 (centres undefined) |  | inconclusive: 10 µM [inhibitor, single point]
COc1ccccc1CNC(=O)CCCc1nnc2n(CC(C)C)c(=O)c3sccc3n12 | inactive: -11.9% | 
COc1ccccc1NC(=S)NC1CCCCCC1 |  | inconclusive: 28.2 µM [inhibitor, single point]
Cc1ccc(-c2nc3ccccc3c(=O)o2)cc1 |  | inconclusive: 7.94 µM [inhibitor, partial curve, poor fit]
CCOC(=O)N1CCN(C(=O)c2cccn3c(=O)c4cc(Br)ccc4nc23)CC1 | inactive: 25.1% [at 7.66 µM] | 
O=C(NCCc1ccccc1)c1cc([N+](=O)[O-])ccc1N1CCOCC1 |  | inconclusive: 10 µM [inhibitor, partial curve]
O=C(CN1CCN(c2ccc(O)cc2)CC1)Nc1cc([N+](=O)[O-])ccc1Cl | inactive: -19.5% | 
Cc1nc(NC(=O)CSc2nc3cccnc3n2Cc2ccccc2)sc1C |  | inconclusive: 14.1 µM [inhibitor, single point]
Cc1cc(C)c(C#N)c(N2CCN(Cc3ccccc3)CC2)n1 |  | inconclusive: 28.2 µM [inhibitor, single point]
CCNc1nc(NCC)n2c(SCC(=O)NCC3CCCCC3)nnc2n1 |  | inconclusive: 3.55 µM [inhibitor, partial curve]
CCOC(=O)N1CCC(n2c(SCC(=O)N3CCC(C)CC3)nc3ccccc3c2=O)CC1 |  | inconclusive: 7.94 µM [inhibitor, partial curve, poor fit]
Cc1ccc(OCC(=O)N/N=C/C=C/c2ccco2)c(Br)c1 |  | inconclusive: 11.2 µM [inhibitor, single point]
Cc1ccc(CNC(=O)c2cc3c(s2)-c2ccccc2SC3)cc1 | inactive: -10.9% | 
CCn1cc(C(=O)NCCCN(C)C)c(=O)c2cc(F)c(N3CCN(C)CC3)cc21 |  | inconclusive: 28.2 µM [inhibitor, single point]
CN1CCN(NC(=O)c2cn(-c3ccccc3)nc2-c2cccc(Br)c2)CC1 |  | inconclusive: 10 µM [inhibitor, partial curve, poor fit]
Cc1ccccc1C(=O)N1CCN(c2ccc([N+](=O)[O-])c(N3CCOCC3)c2)CC1 |  | inconclusive: 10 µM [inhibitor, partial curve, poor fit]
CC(C)(C)NC(=O)CSc1nnc(-c2ccccc2)c(-c2ccccc2)n1 | inactive: 4.03% | 
COC(=O)c1nnn(CC(=O)NC(=O)Nc2cccc(C)c2C)c1C(=O)OC |  | inactive
CCOC(=O)C1CCN(C(=O)c2cccc(C(=O)N3CCC(C(=O)OCC)CC3)c2)CC1 | inactive: 2.81% | 

Compound | activity change, negative = inhibition | Potency
CCCCNC(=O)C(C)N(CCN(C)C)C(=O)CCCN1C(=O)NC(c2ccc(Cl)cc2)C(C(=O)OCc2ccccc2)=C1C (centres undefined) |  | inconclusive: 31.6 µM [inhibitor, single point]
COc1ccc2[nH]c3c(C)c4cc[n+](C)cc4c(C)c3c2c1 |  | inconclusive: 10 µM [inhibitor, partial curve, poor fit]
COc1cc2sc(-c3ccc(S(C)(=O)=O)cc3)c(C(=O)NCc3ccc(C)o3)c2cc1OC | inactive: -10.6% | 
Cc1ccc(NC(=O)CSc2nc3ccccc3c(=O)n2CCCN2CCCCC2)cc1C |  | inconclusive: 31.6 µM [inhibitor, single point]
COc1cc(Cl)c(C)cc1NC(=O)CSc1nnc(-c2ccco2)n1CC(C)C |  | inconclusive: 11.2 µM [inhibitor, single point]
COc1cc(/C=C2\SC(=S)N(CC(=O)O)C2=O)ccc1OC(=O)c1ccco1 |  | inconclusive: 31.6 µM [inhibitor, single point]
Cc1cccc(C(=O)N[C@H](C(=O)Nc2ccc(C)c(S(=O)(=O)N3CCOCC3)c2)C(C)C)c1 |  | inconclusive: 1.12 µM [inhibitor, full curve, poor fit]
N#Cc1ccc(C(=O)NC(=S)NC2CCCCC2)cc1 |  | inconclusive: 28.2 µM [inhibitor, single point]
C=CCc1ccccc1OCC(=O)NNC(=S)NCc1ccccc1 |  | inconclusive: 28.2 µM [inhibitor, single point]
Cc1ccccc1C(=O)NC(=S)Nc1ccccc1N1CCCC1 |  | inconclusive: 14.1 µM [inhibitor, single point]
CC(=O)c1cccc(NC(=O)CSc2nc(C3CC3)nc3ccccc23)c1 |  | inconclusive: 10 µM [inhibitor, single point]
O=C(O)COc1ccc(C=C2SC(=S)N(c3ccccc3)C2=O)cc1 |  | inconclusive: 10 µM [inhibitor, partial curve]
COc1ccccc1CCNC(=O)C(=O)NCC(c1ccc2c(c1)OCO2)N1CCOCC1 (centres undefined) | inactive: 8.31% | 
Cc1ccc(C(C#N)c2ccc(C(=O)c3ccc(F)cc3)cc2)cc1 (centres undefined) | inactive: 13.4% | 
[O-][n+]1onc2c1CCc1c-2nn(-c2ccccc2Cl)[n+]1[O-] |  | inconclusive: 12.6 µM [inhibitor, partial curve, poor fit]
O=C(NCCCn1ccnc1)/C(=C/c1cccnc1)NC(=O)c1ccco1 | inactive: -0.133% | 
CCN(CC)C(=O)CSc1nc(-c2ccccc2F)nc2c1Cc1c(CO)cnc(C)c1O2 |  | inconclusive: 7.08 µM [inhibitor, partial curve, poor fit]
COc1ccc(C(=O)N/N=C/c2sc3ccccc3c2O)cc1 |  | inconclusive: 2 µM [inhibitor, partial curve, poor fit]
CCOC(=O)[C@]12CCCC=C1N(Cc1ccccc1)C(=O)[C@H](CC(=O)N1CCCC1)C2 | inactive: 1.46% | 
CCC(Cc1ccccc1)NC(=O)Cn1cccc1C(=O)c1ccccc1 (centres undefined) |  | inconclusive: 11.2 µM [inhibitor, single point]
O=C1c2ccccc2C(=O)c2c1cccc2N1CCOCC1 |  | inconclusive: 11.2 µM [inhibitor, single point]
CCOc1ccc(-c2c(C(=O)N/N=C(\C)c3ccccc3OC)nnn2-c2nonc2N)cc1 | inactive: 6.39% | 

Compound | activity change, negative = inhibition | Potency
NC(=O)N/N=C/c1cn(-c2ccccc2)nc1-c1ccccc1 | inactive: -3.58% | 
C[C@H](CO)N1C[C@H](C)[C@@H](CN(C)S(=O)(=O)c2ccccc2)Oc2ccc(NC(=O)Nc3ccc(C(F)(F)F)cc3)cc2C1=O |  | inconclusive: 7.94 µM [inhibitor, partial curve, poor fit]
Cc1cccc(NS(=O)(=O)c2ccc3oc(=O)c4ncn(C)c4c3c2)c1C |  | inconclusive: 0.316 µM [inhibitor, full curve, poor fit]
COc1cc(OC)nc(C(NC(=O)C2CCN(Cc3c[nH]c4ccccc34)CC2)c2ccc(Cl)cc2)n1 (centres undefined) |  | inconclusive: 28.2 µM [inhibitor, single point]
O=C(CSc1nc2ncc(Cl)cc2[nH]1)Nc1ccccc1-c1ccccc1 |  | inconclusive: 28.2 µM [inhibitor, single point]
CC(C)NCC(O)Cn1c2c(c3ccccc31)CCc1c-2cnn1-c1ccccc1 (centres undefined) |  | inconclusive: 10 µM [inhibitor, partial curve, poor fit]
CCOc1ccc(Nc2nc(N)c3ccccc3n2)cc1 | inactive: -31.7% | 
O=c1c(Cl)c(Cl)cnn1Cc1ccc(F)cc1 |  | inconclusive: 22.4 µM [inhibitor, single point]
Cc1ccc(NS(=O)(=O)c2cc(Br)cc3c2N(C(=O)C2CC2)CC3)cc1C | inactive: -27.4% | 
CCOc1ccc(N2C(=O)C3Sc4[nH]c(=O)sc4C(/C=C/c4ccccc4)C3C2=O)cc1 (centres undefined) |  | inconclusive: 28.2 µM [inhibitor, single point]
Cc1cc(C)cc(NC(=O)CS(=O)(=O)c2cccc3nsnc23)c1 |  | inconclusive: 3.16 µM [inhibitor, partial curve, poor fit]
CCOC(=O)c1sc(=S)n(CC)c1NC(=O)c1ccccc1 |  | inconclusive: 28.2 µM [inhibitor, single point]
CCCN(Cc1ccccc1)C(=S)NC(=O)c1ccccc1[N+](=O)[O-] |  | inconclusive: 5.01 µM [inhibitor, full curve, poor fit]
CC(=O)c1cccc(Nc2cc(C)nc3c(C)cccc23)c1 |  | inconclusive: 10 µM [inhibitor, single point]
CCc1ccc(CNCc2c(C(=O)O)n(Cc3cccc(F)c3)c3cc(OC)ccc23)cc1 |  | inconclusive: 10 µM [inhibitor, partial curve, poor fit]
CC(C)c1ccc(NC(=O)Nc2nc(C(N)C(C)C)cs2)cc1 (centres undefined) |  | inconclusive: 28.2 µM [inhibitor, single point]
COc1ccc(C)cc1Nc1n[n+](-c2ccccc2)c(-c2ccc(SC)cc2)s1 |  | inconclusive: 10 µM [inhibitor, single point]
O=C(O)c1ccc(N/N=C/C=C/c2ccc([N+](=O)[O-])o2)cc1 |  | inconclusive: 28.2 µM [inhibitor, single point]
Cc1ccc(OCC(O)CN2CCC(Cc3ccccc3)CC2)c(C)c1 (centres undefined) |  | inconclusive: 10 µM [inhibitor, partial curve, poor fit]
O=C(N[C@H](Cc1ccc(Cl)cc1)C(=O)O)OCC1c2ccccc2-c2ccccc21 | inactive: -11.2% | 
